{
  "source": "the supplement of paper PMC12067093",
  "about": "“Discovery and optimisation of a covalent ligand for TRIM25 and its application to targeted protein ubiquitination” (Chemical Science, 2025)",
  "note": "About 21,000 targets were measured; listed, in parts, are those with the largest changes and a random draw of the rest.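 Further: competitive chemoproteomic profiling in live THP-1 cells with an iodoacetamide desthiobiotin (IA-DTB) probe, comparing probe-labelled peptide intensities in compound-treated cells against DMSO-treated controls.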",
  "data": [
    {"compound": "CC1Cc2ccccc2N1C(=O)C1CCCN(C1)C(=O)CCl (mixture of isomers) [TRIM25 ligand 11 (diastereomer mixture)]", "test": "probe-labelled cysteine peptide fold change vs DMSO (competition) (log2 fold change); higher = less target engagement (more negative = stronger competition)", "conditions": "50 µM; THP-1; incubation time: 4 h", "values": [
      {"target": "STARD4_Q96DR4_75_AQGVIDDLVYSIIDHIRPGPCR (UniProt Q96DR4)", "sequence (Q96DR4 whole entry)": "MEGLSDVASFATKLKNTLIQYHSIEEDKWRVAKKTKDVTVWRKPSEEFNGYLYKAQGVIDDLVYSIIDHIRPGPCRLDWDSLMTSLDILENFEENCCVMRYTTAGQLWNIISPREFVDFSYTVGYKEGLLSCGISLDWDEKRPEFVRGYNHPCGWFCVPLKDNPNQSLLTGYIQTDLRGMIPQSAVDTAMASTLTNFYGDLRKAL", "probe-labelled cysteine peptide fold change": 0.346},
      {"target": "STAG2_Q8N3U4_632_HTDTDVLEACSK (UniProt Q8N3U4)", "probe-labelled cysteine peptide fold change": 0.0641},
      {"target": "SUZ12_Q15022_494_IDVSINECYDGSYAGNPQDIHR (UniProt Q15022)", "sequence (Q15022 whole entry, looked up)": "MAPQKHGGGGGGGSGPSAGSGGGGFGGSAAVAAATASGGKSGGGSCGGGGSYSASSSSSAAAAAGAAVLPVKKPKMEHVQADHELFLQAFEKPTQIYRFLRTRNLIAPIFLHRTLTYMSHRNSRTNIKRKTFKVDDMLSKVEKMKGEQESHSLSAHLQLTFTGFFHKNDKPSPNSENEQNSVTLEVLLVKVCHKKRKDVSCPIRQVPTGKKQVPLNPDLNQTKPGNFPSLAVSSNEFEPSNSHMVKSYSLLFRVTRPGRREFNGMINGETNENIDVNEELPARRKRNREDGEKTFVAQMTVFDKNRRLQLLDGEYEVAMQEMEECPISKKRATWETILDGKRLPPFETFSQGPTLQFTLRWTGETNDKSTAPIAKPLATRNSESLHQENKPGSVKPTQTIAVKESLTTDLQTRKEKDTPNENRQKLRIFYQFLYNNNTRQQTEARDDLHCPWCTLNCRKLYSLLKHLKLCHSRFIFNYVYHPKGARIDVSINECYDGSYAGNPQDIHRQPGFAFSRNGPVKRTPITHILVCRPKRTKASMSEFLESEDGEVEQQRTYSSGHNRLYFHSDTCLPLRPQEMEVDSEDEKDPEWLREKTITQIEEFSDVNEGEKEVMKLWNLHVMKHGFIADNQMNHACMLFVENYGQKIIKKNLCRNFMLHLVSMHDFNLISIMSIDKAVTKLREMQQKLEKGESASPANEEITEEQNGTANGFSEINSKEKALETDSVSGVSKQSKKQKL", "probe-labelled cysteine peptide fold change": 0.433},
      {"target": "TMEM94_Q12767_381_CIWGHFLR (UniProt Q12767)", "sequence (Q12767 whole entry, looked up)": "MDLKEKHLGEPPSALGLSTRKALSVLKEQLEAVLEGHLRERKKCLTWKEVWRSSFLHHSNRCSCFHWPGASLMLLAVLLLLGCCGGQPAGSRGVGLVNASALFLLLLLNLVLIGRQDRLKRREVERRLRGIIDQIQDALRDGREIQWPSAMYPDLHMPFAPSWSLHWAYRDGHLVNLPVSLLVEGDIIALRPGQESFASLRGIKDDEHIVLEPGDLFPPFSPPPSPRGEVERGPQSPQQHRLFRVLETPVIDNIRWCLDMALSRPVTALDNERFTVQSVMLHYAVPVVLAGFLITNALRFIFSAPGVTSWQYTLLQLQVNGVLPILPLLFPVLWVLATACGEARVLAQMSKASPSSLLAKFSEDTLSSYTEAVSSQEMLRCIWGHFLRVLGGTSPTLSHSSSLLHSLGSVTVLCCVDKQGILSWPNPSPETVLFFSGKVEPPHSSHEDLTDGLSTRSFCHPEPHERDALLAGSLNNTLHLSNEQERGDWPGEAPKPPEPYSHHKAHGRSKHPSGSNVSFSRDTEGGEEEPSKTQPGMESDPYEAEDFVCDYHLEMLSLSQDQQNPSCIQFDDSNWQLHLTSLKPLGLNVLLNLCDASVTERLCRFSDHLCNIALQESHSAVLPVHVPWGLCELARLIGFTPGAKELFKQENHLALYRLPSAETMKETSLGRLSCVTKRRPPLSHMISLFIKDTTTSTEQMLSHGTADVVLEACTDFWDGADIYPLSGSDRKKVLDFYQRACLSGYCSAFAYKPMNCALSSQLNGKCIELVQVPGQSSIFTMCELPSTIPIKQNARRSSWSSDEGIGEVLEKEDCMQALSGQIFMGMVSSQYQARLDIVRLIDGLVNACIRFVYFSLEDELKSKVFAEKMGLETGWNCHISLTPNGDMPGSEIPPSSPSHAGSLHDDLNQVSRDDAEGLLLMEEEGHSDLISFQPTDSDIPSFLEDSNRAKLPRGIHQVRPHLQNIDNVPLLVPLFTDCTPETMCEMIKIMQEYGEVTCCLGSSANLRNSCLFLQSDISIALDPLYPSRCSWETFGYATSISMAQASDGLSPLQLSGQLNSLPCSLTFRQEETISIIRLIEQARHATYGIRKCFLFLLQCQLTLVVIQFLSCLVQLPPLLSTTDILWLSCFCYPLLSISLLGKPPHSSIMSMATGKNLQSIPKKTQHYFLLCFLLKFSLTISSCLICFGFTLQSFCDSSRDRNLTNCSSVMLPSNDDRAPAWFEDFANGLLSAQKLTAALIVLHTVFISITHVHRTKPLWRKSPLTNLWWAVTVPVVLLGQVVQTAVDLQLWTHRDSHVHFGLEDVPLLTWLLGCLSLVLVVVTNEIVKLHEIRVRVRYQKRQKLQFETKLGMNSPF", "probe-labelled cysteine peptide fold change": -0.0543},
      {"target": "TRAPPC11_Q7Z392_771_VPNISVHLLHEPPALTNEMYCLVVTVQSHEK (UniProt Q7Z392)", "probe-labelled cysteine peptide fold change": 0.782},
      {"target": "TIAL1_Q01085_205+209_NCTVYCGGIASGLTDQLMR (UniProt Q01085)", "probe-labelled cysteine peptide fold change": -0.693},
      {"target": "TOP2B_Q02880-2_7_SGGCGAGAGVGGGNGALTWVNNAAK (UniProt Q02880)", "probe-labelled cysteine peptide fold change": -0.182},
      {"target": "TET3_O43151_1381_GKPWSPCK (UniProt O43151)", "probe-labelled cysteine peptide fold change": -0.338},
      {"target": "TPX2_Q9ULW0_364_ICRDPQTPVLQTK (UniProt Q9ULW0)", "probe-labelled cysteine peptide fold change": -0.176},
      {"target": "TDRD7_Q8NHU6_284_EDLNQGILQQFEHWPHICTVEK (UniProt Q8NHU6)", "sequence (Q8NHU6 whole entry, looked up)": "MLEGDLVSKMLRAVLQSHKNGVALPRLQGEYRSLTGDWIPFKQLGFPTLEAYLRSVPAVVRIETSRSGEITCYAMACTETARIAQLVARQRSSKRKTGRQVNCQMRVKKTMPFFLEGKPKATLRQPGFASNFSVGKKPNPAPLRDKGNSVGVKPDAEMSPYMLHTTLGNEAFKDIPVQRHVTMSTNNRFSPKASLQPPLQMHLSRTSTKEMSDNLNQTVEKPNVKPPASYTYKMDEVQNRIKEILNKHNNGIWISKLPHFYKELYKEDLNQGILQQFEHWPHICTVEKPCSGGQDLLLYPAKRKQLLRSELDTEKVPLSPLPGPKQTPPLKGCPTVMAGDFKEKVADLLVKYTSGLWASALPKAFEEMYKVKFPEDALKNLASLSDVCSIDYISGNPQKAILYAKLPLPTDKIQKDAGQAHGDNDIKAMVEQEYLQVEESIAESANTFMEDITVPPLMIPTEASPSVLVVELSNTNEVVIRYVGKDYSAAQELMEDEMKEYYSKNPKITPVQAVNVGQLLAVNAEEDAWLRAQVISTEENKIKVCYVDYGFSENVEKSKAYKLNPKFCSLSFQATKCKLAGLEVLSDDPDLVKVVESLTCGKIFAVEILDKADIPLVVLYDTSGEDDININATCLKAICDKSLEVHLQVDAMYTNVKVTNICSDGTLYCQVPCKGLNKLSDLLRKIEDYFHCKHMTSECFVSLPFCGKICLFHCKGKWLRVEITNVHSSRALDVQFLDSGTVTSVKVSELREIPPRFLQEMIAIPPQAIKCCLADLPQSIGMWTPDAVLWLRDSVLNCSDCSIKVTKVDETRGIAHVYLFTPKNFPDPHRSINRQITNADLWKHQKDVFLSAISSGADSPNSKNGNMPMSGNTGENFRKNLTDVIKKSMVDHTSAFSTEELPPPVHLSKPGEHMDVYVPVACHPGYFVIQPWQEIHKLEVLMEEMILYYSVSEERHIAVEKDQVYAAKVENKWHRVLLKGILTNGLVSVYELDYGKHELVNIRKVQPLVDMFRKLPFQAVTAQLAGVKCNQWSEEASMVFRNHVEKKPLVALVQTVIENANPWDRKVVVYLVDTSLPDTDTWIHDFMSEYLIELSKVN", "probe-labelled cysteine peptide fold change": -0.057},
      {"target": "TADA2B_Q86TJ2_32+35_CTECQDIELCPECFSAGAEIGHHR (UniProt Q86TJ2)", "probe-labelled cysteine peptide fold change": 0.59},
      {"target": "TATDN1_Q6P1N9_76_DALHLAQTNGMFFSTVGCHPTR (UniProt Q6P1N9)", "probe-labelled cysteine peptide fold change": 0.0725},
      {"target": "ST14_Q9Y5Y6_567_VNVVTCTK (UniProt Q9Y5Y6)", "sequence (Q9Y5Y6 whole entry, looked up)": "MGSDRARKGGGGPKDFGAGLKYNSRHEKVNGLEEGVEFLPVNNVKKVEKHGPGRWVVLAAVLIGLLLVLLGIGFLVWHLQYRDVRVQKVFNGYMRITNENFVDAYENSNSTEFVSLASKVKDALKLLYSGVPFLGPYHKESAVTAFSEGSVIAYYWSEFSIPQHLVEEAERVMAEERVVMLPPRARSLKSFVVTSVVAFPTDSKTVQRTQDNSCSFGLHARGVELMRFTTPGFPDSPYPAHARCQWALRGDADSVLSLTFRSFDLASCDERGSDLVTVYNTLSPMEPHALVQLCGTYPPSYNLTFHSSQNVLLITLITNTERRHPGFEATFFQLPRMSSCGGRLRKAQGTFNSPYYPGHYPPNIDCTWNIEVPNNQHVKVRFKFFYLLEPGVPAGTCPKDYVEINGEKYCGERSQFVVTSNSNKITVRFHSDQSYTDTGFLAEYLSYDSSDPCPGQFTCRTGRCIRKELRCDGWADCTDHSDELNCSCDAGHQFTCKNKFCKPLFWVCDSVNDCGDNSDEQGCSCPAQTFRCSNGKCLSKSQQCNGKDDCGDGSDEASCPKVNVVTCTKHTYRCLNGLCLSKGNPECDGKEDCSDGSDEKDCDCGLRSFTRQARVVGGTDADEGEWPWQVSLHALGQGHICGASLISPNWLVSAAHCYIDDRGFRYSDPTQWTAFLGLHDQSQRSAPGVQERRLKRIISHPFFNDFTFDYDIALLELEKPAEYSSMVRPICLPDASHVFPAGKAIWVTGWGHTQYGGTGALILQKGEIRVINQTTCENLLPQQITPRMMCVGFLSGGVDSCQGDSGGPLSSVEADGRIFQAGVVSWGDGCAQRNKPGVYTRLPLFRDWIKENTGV", "probe-labelled cysteine peptide fold change": 0.048},
      {"target": "THBS1_P07996_754_IPDDRDNCPFHYNPAQYDYDRDDVGDR (UniProt P07996)", "probe-labelled cysteine peptide fold change": 0.298},
      {"target": "THOC3_Q96J01_65_VHSVAWSCDGR (UniProt Q96J01)", "probe-labelled cysteine peptide fold change": 0.0117},
      {"target": "TONSL_Q96HA7_537_ACIEGQLR (UniProt Q96HA7)", "probe-labelled cysteine peptide fold change": 0.0855},
      {"target": "TLE1_Q04724_47_IKEEFQFLQAQYHSLKLECEK<|>TLE2_Q04725_46_IKEEFQFLQAQYHSLKLECEK (UniProt Q04725+Q04724)", "probe-labelled cysteine peptide fold change": -0.216},
      {"target": "TGFBRAP1_Q8WUH2_32_VNIECVECCGR (UniProt Q8WUH2)", "probe-labelled cysteine peptide fold change": 0.0274},
      {"target": "SSH3_Q8TE77_634_TQAFQEQEQGQGQGQGEPCISSTPR (UniProt Q8TE77)", "probe-labelled cysteine peptide fold change": -0.167},
      {"target": "TBCD_Q9BTW9_457_GACSVGTNVR (UniProt Q9BTW9)", "probe-labelled cysteine peptide fold change": 0.142},
      {"target": "TCEAL3_Q969E4_44_TECEGKREDEGEPGDEGQLEDEGSQEK (UniProt Q969E4)", "sequence (Q969E4 whole entry)": "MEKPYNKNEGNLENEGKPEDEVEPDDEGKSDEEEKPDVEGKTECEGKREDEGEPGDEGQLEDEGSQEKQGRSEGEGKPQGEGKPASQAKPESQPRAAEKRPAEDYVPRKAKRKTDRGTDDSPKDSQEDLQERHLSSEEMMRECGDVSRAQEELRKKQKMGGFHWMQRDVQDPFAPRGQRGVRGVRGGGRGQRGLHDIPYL", "probe-labelled cysteine peptide fold change": -0.51},
      {"target": "THOC2_Q8NI27_743_DALLDHDLALPLCLLMAQQR (UniProt Q8NI27)", "probe-labelled cysteine peptide fold change": 0.192},
      {"target": "TLN1_Q9Y490_1353_AVTDSINQLITMCTQQAPGQK (UniProt Q9Y490)", "probe-labelled cysteine peptide fold change": -0.0102},
      {"target": "SUCLG1_P53597_172_LIGPNCPGVINPGECK (UniProt P53597)", "probe-labelled cysteine peptide fold change": 0.101},
      {"target": "SUGT1_Q9Y2Z0_62_AYCHILLGNYCVAVADAK (UniProt Q9Y2Z0)", "sequence (Q9Y2Z0 whole entry, looked up)": "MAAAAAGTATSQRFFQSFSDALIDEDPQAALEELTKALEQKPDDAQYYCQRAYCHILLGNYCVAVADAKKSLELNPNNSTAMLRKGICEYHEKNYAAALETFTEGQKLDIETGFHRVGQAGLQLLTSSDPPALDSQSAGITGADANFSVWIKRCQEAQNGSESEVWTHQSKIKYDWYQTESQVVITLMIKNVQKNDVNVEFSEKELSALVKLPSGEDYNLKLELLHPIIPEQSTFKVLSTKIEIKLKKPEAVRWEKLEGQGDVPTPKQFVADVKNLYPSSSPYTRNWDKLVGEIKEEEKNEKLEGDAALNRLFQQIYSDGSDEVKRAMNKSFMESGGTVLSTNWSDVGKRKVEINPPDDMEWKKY", "probe-labelled cysteine peptide fold change": -0.0203}
    ]}
  ]
}
